From PubChem BioAssay AID493208 (National Center for Advancing Translational Sciences (NCATS), 2011)
Screen size: about 44,000 compounds; about 340 (0.77%) were called active. Inconclusive results (about 5%) are left out. Calls come from the whole dose curve; as a rule, active = well fitted inhibition curve with a large enough effect; inconclusive = small, poorly fitted or top-dose-only effect; inactive = flat fitted curve, though single readings scatter. This is one part of the list.

Experiment: Acumen qHTS Assay for Inhibitors of the mTORC1 Signaling Pathway in MEF (Tsc2-/-, p53-/-) Cells: Sytravon;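 note: plate controls were DMSO for no effect and rapamycin for full effect; nearly all actives have a fitted effect of over 50% in size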
Conditions: phospho-rpS6 immunofluorescence/PI, 24 h; series mostly up to 38.3 µM; activity change, negative = inhibition: at the top concentration
Text: NIH Molecular Libraries Probe Production Centers Network [MLPCN] NIH Chemical Genomics Center [NCGC] MLPCN Grant: NS059428-01 Assay Submitter (PI): Blenis, John; Hoffman, Greg; Harvard University NCGC Assay Overview: The mammalian target of rapamycin (mTOR) is an intracellular serine/threonine kinase Aberrant regulation of mTOR signaling plays a causative role in a number of human diseases, including cancer, benign tumors such as lymphangioleiomyomatosis (LAM) and Tuberous Sclerosis Complex (TSC), and metabolic diseases such as diabetes and obesity. This project aims to identify inhibitors of ribosomal protein S6 (rpS6) phosphorylation. The phosphorylation of rpS6 is a key event downstream of mTOR activation. The assay uses a phospho-specific antibody of phospho-rpS6 to detect inhibitors of mTOR activation. Mutations in the Tsc1 and Tsc2 genes are the underlying genetic lesions responsible for TSC, causing constitutive activation of the mTORC1 pathway and leading to profound effects on cell metabolism. Aberrant metabolism in cancer has recently received significant attention as a target to develop therapeutic agents in the treatment of cancer.1 As Tsc2-/- cells have lost the ability to respond to energy and growth factor deprivation, these cells are unable to properly down regulate cellular biosynthetic processes in response to metabolic stress, and are thus extremely sensitive to glucose deprivation-induced death.2 A central goal of this project is to explore the unique cell survival and metabolic properties of cells with Tsc1 or Tsc2 by screening for compounds that selectively target the Tsc2-/- MEFs by screening both Tsc2-/- and WT MEF cell lines. We hope to better understand these aspects of TSC physiology in order to exploit them for therapeutic benefit.
NCGC Acumen Assay Protocol Summary: For quantitative high throughput analysis of mTORC1 signaling, we developed a cell-based assay for immuno-fluorescence based detection of rpS6 phosphorylation on the Acumen Explorer that will be used a platform for the primary small molecule screen. Mouse embryonic fibroblasts (MEFs) are cultured in 1536-well plates using DMEM + 10% FBS. Twenty-four hrs after plating, test compounds (solubilized in DMSO) are delivered and incubated with the cells for 24 hrs at 37 degree Celsius. Following the incubation, media with compound is aspirated and the cells are fixed in 4% paraformaldehyde (PFA) containing PBS + 0.2% TX-100. Next, PFA is aspirated, cells are washed two times with PBS plus 0.2% TX-100 and the cells are blocked for 1 hr at room temperature (blocking buffer: LiCOR Blocking Buffer plus 0.2% TX-100). […] Cells are washed two times with PBS plus 0.2% TX-100, and stained with 10 uM propidium iodide (PI) for 20-25 minutes for cell number measurement (1:500 dilution of Hoescht staining is also added for IN Cell imaging). The plates are scanned on the Acumen Explorer laser scanning instrument (TTP Labtech) using the 488nm laser for simultaneous excitation of the Alexa-488 and PI. […] The normalized phospho-S6 staining is calculated as the ratio of the integrated Alexa 488 intensity divided by the integrated PI intensity for the single concentration rapamycin control (7.5 nM) and DMSO columns. […] Inhibition of the pathway is defined based on the normalized phospho-S6 intensity in rapamycin treated cells. Active cells are defined as those with a normalized phospho-S6 staining above this threshold, and each treatment is reported as the % positive cells in the well, where thresholds are defined by selecting wells with the highest and lowest signal and differentiating between the % non-active and % active populations. In addition to the pathway specific phospho-S6 endpoint, the number of PI stained cells from the Acumen is recorded as a measure of cell viability. The primary screen was performed with a MEF cell line in a defined genetic background, Tsc2-/-, p53-/- cell line stably transfected with an empty vector control (Tsc2-/- MEF).

Activity change, negative = inhibition, inactive:
CCc1ccccc1NC(=O)CSc1ncccc1C(=O)O 7.26%, COc1cccc(CNC(=O)CCc2c(C)nc3c(c2C)c(=O)n(C)c(=O)n3C)c1 -5.69%, Cc1cccc(NC(=O)CSC2=Nc3ccccc3C3=NC(CCC(=O)NCc4ccc(F)cc4)C(=O)N23)c1 (stereo not given) 1.6%, CC(=O)c1ccc(NS(=O)(=O)c2cnc(N)nc2)cc1 -3.92%, CCOc1ccccc1NC(=O)Cc1csc(COc2cccc(C)c2)n1 -22.1%, O=C(NCCc1ccc(Cl)cc1)c1ccc(Cn2c(=O)[nH]c3ccccc3c2=O)cc1 -19.3%, CC(=O)c1cccc(Nc2ncnc3c2cnn3C)c1 12.3%, Cc1ccc(-n2c3c(c(=O)[nH]c2=O)C(NS(=O)(=O)c2ccc(C)cc2)(C(F)(F)F)C(=O)N3)cc1 (stereo not given) -13.2%, COc1ccc2[nH]cc(CCNC(=O)Nc3cccc(F)c3)c2c1 3.82%, CCOc1ccc(CN2C(=O)c3ccccc3Sc3ccc(C(=O)NCCc4ccccc4)cc32)cc1 -14.2%, COC(=O)c1c(NC(=O)COc2c(C)cccc2C)sc2c1CCCC2 9.43%, CC1CCN(S(=O)(=O)c2ccc(C(=O)Nc3nc4ccc(F)cc4s3)cc2)CC1 -6%, CCOc1ccccc1NC(=O)c1cc2cc(C)ccc2n1C -20.8%, CCc1ccc(NC(=O)C2CCC(CNS(=O)(=O)c3cccs3)CC2)cc1 (stereo not given) -2.45%, COc1cccc(CNC(=O)c2ccc3c(c2)N(C)C(=O)C2CCCCN32)c1 (stereo not given) -11.4%, COc1ccc(-c2nc(SCC(=O)Nc3ccc4c(c3)OCO4)c(-c3ccccc3)[nH]2)cc1 -4.52%, COc1ccccc1NC(=O)C1=C(C)Nc2nc(-c3ccco3)nn2C1c1ccccc1 (stereo not given) 3.56%, Cc1ccccc1NC(=O)c1c(NC(=O)c2ccncc2)sc2c1CCC(C(C)(C)C)C2 (stereo not given) -0.334%, COc1ccc(Nc2nc3c(S(=O)(=O)c4ccc(Br)cc4)nnn3c3ccsc23)c(OC)c1 -3.61%, CC1CCN(c2cc3c(cc2F)c(=O)c(S(=O)(=O)c2ccc(Cl)cc2)cn3C)CC1 -4.28%, CCOC(=O)c1c(NC(=O)c2cc(-c3ccc(Cl)cc3)on2)sc2c1CCCC2 -10.8%, CNS(=O)(=O)c1cc(-c2nn3c(C)nnc3c3ccccc23)ccc1C 5.04%, CC(C)CCNC(=O)c1cn(C)c2ccc(S(=O)(=O)N3CCCC3)cc2c1=O -10.8%, CCOc1ccc(-c2cc3nc(C4CCN(C(=O)OC(C)(C)C)CC4)c(C(=O)Nc4ccc(C)c(F)c4)cn3n2)cc1 -4.83%, CCn1cc(C(=O)N2CCN(c3cc(Cl)ccc3C)CC2)c(=O)c2cc(S(=O)(=O)N3CCOCC3)ccc21 -5.39%, CCC(=O)N1CCc2cc(Br)cc(S(=O)(=O)N3CCC(C(=O)N(CC)CC)CC3)c21 2.88%, COc1ccc(OC)c(CNc2ncnc3onc(C)c23)c1 -8.01%, CCc1cccc(C)c1NC(=O)c1cc(S(=O)(=O)N2CCN(c3ccccc3)CC2)ccc1F 9.39%, COc1ccc2c(c1)CC(C(=O)Nc1cc(OC)c(OC)c(OC)c1)CO2 (stereo not given) -20.8%, Cc1cccc(CCNC(=O)CCc2c(C)nc3c(c(C)nn3-c3ccccc3)c2C)c1 -9.05%, CN1C(=O)c2ccccc2Sc2ccc(NC(=O)N3CCN(c4cccc(Cl)c4)CC3)cc21 -7.47%, CN(C)c1ccc(C(=O)NCc2ccc3c(c2)CCN3C(=O)c2ccc(Cl)cc2)cc1 -3.18%, Clc1ccc(CNc2ncnc3onc(-c4ccc(Cl)cc4)c23)cc1 -17.2%, COc1ccc(C(=O)NCc2ccc3c(c2)CCN3C(=O)c2ccc(Cl)cc2)c(OC)c1 -3.36%, COc1cc(OC)cc(C(=O)Nc2cccc(-c3cn4ccsc4n3)c2)c1 -0.476%, CCOc1ccc(NC(=O)CSc2cn(CC(=O)N3CCOCC3)c3ccccc23)cc1 -9.25%, CC(C)OCCCn1c(SCc2ccccc2Cl)nc2c(sc3ccccc32)c1=O 1.67%, CCC(Cc1ccccc1)NC(=O)c1cccc(Nc2nc3ccccc3nc2-n2nc(C)cc2C)c1 (stereo not given) 3.15%, CCC1CN(C(=O)N2CCC(C(=O)NCCC3=CCCCC3)CC2)c2ccccc2O1 (stereo not given) 5.23%, CCC1CCCCN1C(=O)Cn1c(=O)n(-c2ccc(Cl)c(Cl)c2)c(=O)c2c(C)c(C(=O)N(C)C)sc21 (stereo not given) -1.18%, COc1ccc(CCNC(=O)c2cc(=O)[nH]c3ccc(S(=O)(=O)N4CCCCC4)cc23)cc1OC 4.24%, CCOc1ccc(NC(=O)C2CCC(CNS(=O)(=O)c3ccc4c(c3)CCCC(=O)N4)CC2)cc1 (stereo not given) 0.383%, CC(=O)Nc1c(C)nn(-c2ccccc2)c1N1CCC(C(=O)NCc2cccc(F)c2)CC1 -10.1%, CCN(c1cc(C)cc(C)c1)S(=O)(=O)c1nnc(NC(=O)c2ccccc2C)s1 3.55%, Cc1ccc(N(CC(=O)N2CCN(c3cccc(C)c3C)CC2)S(=O)(=O)c2c(C)nn(C)c2C)cc1 -9.72%, Cn1nc(C(=O)NCc2ccccc2Cl)c2c1-c1ccccc1SC2 0.328%, CCN(CC)c1nn2c(=O)c(C(=O)NCc3ccccc3Br)cnc2s1 -7.22%, O=C(NCCc1ccc(Cl)cc1)c1cc2c(s1)-c1ccccc1OC2 -0.98%, COc1cc(OC)c2c(C)c(CC(=O)NCc3ccccc3OC)c(=O)oc2c1 1.88%, CCOc1ccc(NC(=O)N2CCN(C(=O)c3nsc4ccccc34)CC2)cc1 -12.1%, Cc1cccc(NC(=O)c2ccc(Cn3nc(N4CCN(c5ccccc5)CC4)ccc3=O)o2)c1C -1.46%, O=S(=O)(Nc1cccc(-c2ccc(N3CCOCC3)nn2)c1)c1ccc(F)c(C(F)(F)F)c1 -6.96%, COc1ccc(CCNC(=O)c2ccc3c(c2)CCN3S(=O)(=O)c2ccc(C)cc2)cc1OC -3.8%, COc1ccc(-c2cc(C(F)(F)F)nc(SCC(=O)N(C)Cc3ccccc3)n2)cc1 -1.41%, Cc1ccc(NC(=O)CSc2nccn2-c2ccccc2)cc1 -2.69%, O=C(COc1ccccc1Cl)Nc1ccc2nc(SCC(=O)N3CCOCC3)sc2c1 -0.348%, O=S(=O)(c1ccc2nc(Nc3ccc(Br)cc3F)ccc2c1)N1CCCCC1 1.62%, CCSc1nc2sc3c(c2c(=O)n1-c1ccc(C)c(Cl)c1)CCN(C(C)=O)C3 -18.5%, Cc1cc(=O)n(Cc2ccc(Br)cc2F)c2c1c(C)nn2-c1ccccc1 4.92%, Cc1ccc(NC(=O)Cn2c(=O)n(CCCCC(=O)NCCc3ccccc3)c(=O)c3ccccc32)cc1 -1.03%, Cc1ccccc1Cn1cc(S(=O)(=O)c2ccc(F)cc2)c(=O)c2cc3c(cc21)OCO3 -2.43%, O=C(CCNS(=O)(=O)c1ccc2c(c1)CCCC(=O)N2)NCc1ccc(Cl)cc1 -20.2%, Cc1cc(Cl)ccc1OCCSc1nnc(-c2cccs2)o1 -0.506%, CCc1nccn1S(=O)(=O)c1cc(Br)ccc1Br 2.28%, COC(=O)c1ccc2c(c1)N(CC(=O)Nc1ccc(C)cc1Cl)C(=O)c1ccccc1S2 0%, COc1ccc(C)cc1NC(=O)CN(C)S(=O)(=O)c1ccc2[nH]c(=O)oc2c1 -9.06%, COC(=O)c1sccc1S(=O)(=O)N(CC(=O)Nc1cc(F)ccc1F)c1ccc(C)c(C)c1 -0.18%, CCn1c(C)c(C)c2cc(C(=O)NCCc3cc(OC)ccc3OC)ccc21 -2.61%, Cc1oc2ncn(CC(C)C)c(=O)c2c1C(=O)NCCCN(C)Cc1ccccc1 -6.54%, O=C(Nc1cccc(C(F)(F)F)c1)C1CCCN(S(=O)(=O)c2cccc3nonc23)C1 (stereo not given) -20.8%, Cc1oc2c(C)c3oc(=O)c(CCC(=O)N4CCCCC4)c(C)c3cc2c1C -0.787%, Cc1cc2oc(C(=O)Nc3ccc(S(=O)(=O)N(C)c4ccccc4)cc3)cc(=O)c2cc1C -2.06%, COc1cc(-c2nnc(SCCOc3ccccc3)o2)cc(OC)c1OC 1.08%, CCOC(=O)Cn1c(=O)oc2cc(S(=O)(=O)Nc3ccccc3F)ccc21 -0.697%, CCOC(=O)c1c(SCC(=O)Nc2cccc(C)c2C)nc(=O)[nH]c1C -2.37%, Cc1ccc(Cn2c(CO)cnc2SCC(=O)Nc2cccc(F)c2)cc1 -0.0914%, COc1ccc(-c2noc(-c3ccc(NCCc4ccccc4)c([N+](=O)[O-])c3)n2)cc1 1.54%, CC(=O)N1CCc2c(sc(NC(=O)CSc3ccc(F)cc3)c2-c2nc3ccccc3s2)C1 -18.1%, O=C(Cn1cc(S(=O)(=O)Cc2ccccc2Cl)c2ccccc21)Nc1ccc(F)cc1F -3.96%, COc1ccccc1N1CCN(C(=O)COc2ccccc2C#N)CC1 0.697%, CCOc1ccc(S(=O)(=O)N2CCC(n3c(C)nc4cccnc43)CC2)cc1 0.613%, COC(=O)c1ccc2c(c1)N(Cc1cc(C)ccc1C)C(=O)c1ccccc1S2(=O)=O -10.9%, O=C(Cn1ncc2c(Cl)cccc21)NCc1cccc(F)c1 -0.92%, CCCCN(c1ccccc1)c1ncnc2c1cnn2-c1cccc(C)c1 1.98%, CC(=O)Nc1ccc2nc(SCCOc3ccccc3Cl)sc2c1 -7.91%, CCOC(=O)c1c(C)[nH]c(C)c1S(=O)(=O)N(C)CC(=O)Nc1ccc(C)c(F)c1 0%, Cc1cc(C)c(NC(=O)C2CCCN(C(=O)c3cnn(-c4ccccc4)c3-n3cccc3)C2)c(C)c1 (stereo not given) -10.7%, CCc1ccccc1NC(=O)c1ccc2c(c1)c(C)c(C)n2Cc1ccccc1 -7.35%, COC(=O)c1cc2sccc2n1Cc1nc(-c2ccc(C)cc2)oc1C -1.53%, CN(C(=O)CSc1nc2ccccc2n1CC(=O)N(C)C1CCCCC1)c1ccc(F)cc1 4.69%, O=C(COc1ccc(Br)cc1)Nc1ccc(C(=O)OC2CCCCC2)cc1 -3.84%, CCc1nnc2c3ccccc3nc(N3CCN(c4cc(Cl)ccc4C)CC3)n12 4.16%, CCOc1ccc(NC(=O)Cn2c(=O)n(-c3ccccc3)c(=O)c3c4c(sc32)CCCC4)cc1 -16.7%, COC(=O)c1c(Oc2ccc(Br)cc2)nnc(-c2ccccc2)c1-c1ccccc1 -1.75%, Cc1c(Cl)cccc1NC(=O)Cn1c(=O)n(Cc2ccco2)c(=O)c2oc3ccccc3c21 1.75%
